In PubChem BioAssay AID1476 (National Center for Advancing Translational Sciences (NCATS), 2009):
Where “and” joins values, the source holds several entries; their conditions need not be identical. Equal values may be shown once. The campaign covered roughly 200,000 compounds. About 4,500 (2.2%) were called active. Inconclusive results, whose numbers are uncertain, are shown with a selection of clear calls. Calls come from the whole dose curve; as a rule, active = well fitted inhibition curve with a large enough effect; inconclusive = small, poorly fitted or top-dose-only effect, or effect the other way; inactive = flat fitted curve, though single readings scatter. Potencies beside an inconclusive call are fits to weak or partial responses and may not hold up.
Note: nearly all actives have a fitted effect of over 40% in size.
Potency is the fitted concentration of half-maximal effect; tags give direction and shape of the fitted curve.
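Throughout, for max response, negative = inhibition: plate controls were enzyme without inhibitor for no effect and buffer without enzyme for full effect.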

What follows are compounds tested against Cruzipain (Trypanosoma cruzi) (UniProt P25779) (assay: qHTS Assay for Promiscuous and Specific Inhibitors of Cruzain (without detergent)). Details: purified cruzain, Z-FR-AMC fluorescence, no detergent.
Sequence of UniProt P25779 (P25779 whole entry, looked up): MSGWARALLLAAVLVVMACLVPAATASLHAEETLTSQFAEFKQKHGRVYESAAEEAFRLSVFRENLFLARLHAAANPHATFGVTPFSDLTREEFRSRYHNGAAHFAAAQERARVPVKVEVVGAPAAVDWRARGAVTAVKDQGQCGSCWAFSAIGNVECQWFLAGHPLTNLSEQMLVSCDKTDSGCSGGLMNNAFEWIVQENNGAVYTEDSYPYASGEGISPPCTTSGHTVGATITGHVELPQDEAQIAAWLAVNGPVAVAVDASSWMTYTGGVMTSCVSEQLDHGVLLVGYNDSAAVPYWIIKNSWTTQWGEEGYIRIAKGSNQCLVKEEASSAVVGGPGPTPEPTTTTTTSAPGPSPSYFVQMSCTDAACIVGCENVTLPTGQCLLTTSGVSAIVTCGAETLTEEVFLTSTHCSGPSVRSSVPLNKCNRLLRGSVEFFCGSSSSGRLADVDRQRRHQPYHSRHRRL
Procedure, shortened: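 Detergent-free condition (0.00005% Triton X-100) in acetate buffer pH 5.5 with DTT. 1.5 nM enzyme and compound were pre-mixed 15 min, then 2 uM Z-FR-AMC substrate added; reaction progress from fluorescence change between first and third reads (60 s).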
`CCC(c1nnnn1C(C)(C)CC)N(CCCO)Cc1cc2cccc(C)c2[nH]c1=O` (stereo not drawn) was tested, and the Potency was inconclusive: 25.1 µM [activator, single point]. `O=C(CCn1c2c(c3ccccc31)CCCC2)NNC(=O)c1ccc(Cl)c([N+](=O)[O-])c1` was tested, and the Potency was inconclusive: 31.6 µM [inhibitor, single point]. For `CCC1CCCCN1C(=O)CSc1nc2c([nH]c3ccccc32)c(=O)n1-c1ccc(OC)cc1` (stereo not drawn), the max response, negative = inhibition was inactive: -4.33%. For `CCCOc1ccc(N2C(=O)CC(N3CCN(c4ccccc4OC)CC3)C2=O)cc1` (stereo not drawn), the Potency was inconclusive: 31.6 µM [activator, single point]. For `CCOC(=O)c1cnn(-c2ncnc3sc(CC)cc23)c1N`, the Potency was inconclusive: 39.8 µM [activator, single point]. For `C[C@@H](C(=O)Nc1ccc2ccccc2c1)[C@@H]1C[C@@]1(C)[C@@H](NC(=O)c1ccccc1)c1ccccc1`, the Potency was inconclusive: 31.6 µM [inhibitor, single point] and the max response, negative = inhibition was inactive: -25%. For `COc1cc(C(c2sc3nc(C)nn3c2O)N2CCN(c3ccccc3)CC2)cc(OC)c1OC` (stereo not drawn), the Potency was inconclusive: 39.8 µM [activator, single point]. With `Cc1ccc(Cn2c(C(C)NC(=O)c3ccccc3)nc3ccccc32)cc1` (stereo not drawn) the max response, negative = inhibition was inactive: 1.28%. In the case of `O=C(Nc1nnc(-c2ccc(Cl)cc2)o1)NC1CCCCC1`, the Potency is reported as active: 25.1 µM. For `COc1ccc(-n2cnnc2SC(C)c2nc3sc(C)c(C)c3c(=O)[nH]2)cc1` (stereo not drawn), the max response, negative = inhibition was inactive: -23.7%. For `CCc1ccc(OCC(=O)NC(NC(=S)Nc2ccc(Cl)cc2)C(Cl)(Cl)Cl)cc1` (stereo not drawn), the Potency was inconclusive: 39.8 µM [inhibitor, single point]. For `N#Cc1ccc(Oc2ccc(-c3cnc4ccccc4n3)cc2)cc1C#N`, the Potency was inconclusive: 6.31 µM [activator, single point]. `Cc1cccc(-c2nnc(NC(=O)c3cccs3)s2)c1` was tested, and the Potency was active: 15.8 µM. With `O=C(CNc1ccc2c(c1)OCO2)N/N=C\c1ccccc1Cl` the Potency was inconclusive: 39.8 µM [inhibitor, single point]. `CCCn1c(C)nc2c(c1=O)c1nc3ccccc3nc1n2CCC1=CCCCC1` was tested, and the Potency was inconclusive: 39.8 µM [activator, single point]. In the case of `O=C(NCC(=O)N1CCN(c2ncccn2)CC1)c1cccs1`, the Potency is reported as inconclusive: 0.631 µM [inhibitor, full curve, poor fit]. For `CCOc1ccc(-n2c(COc3ccc(C)cc3)nnc2SCC(N)=O)cc1`, the Potency was inconclusive: 31.6 µM [activator, single point]. In the case of `Cc1ccccc1CN1C(=O)c2ccccc2S(=O)(=O)c2ccc(C(=O)OCC3CCCO3)cc21` (stereo not drawn), the max response, negative = inhibition is reported as inactive: -8.75%. `O=C(c1cc2nc(-c3ccco3)cc(C(F)(F)F)n2n1)N1CCN(c2ccc(F)cc2)CC1` was tested, and the Potency was inconclusive: 39.8 µM [activator, single point]. `Cc1nc(-c2ccccc2)sc1-c1nc(-c2cccs2)ncc1S(=O)(=O)c1ccccc1` was tested, and the Potency was inconclusive: 39.8 µM [inhibitor, single point]. For `CC(=O)N(c1ccc(N(C(C)=O)S(=O)(=O)c2cccs2)cc1)S(=O)(=O)c1cccs1`, the Potency was inconclusive: 25.1 µM [activator, single point]. `Cc1cccc(N2CCN(C(=O)CS(=O)(=O)c3cccc4nsnc34)CC2C)c1` (stereo not drawn) was tested, and the max response, negative = inhibition was inactive: 1.49%. `C[C@@]1(C(NC(=O)c2ccc(-c3ccccc3)cc2)c2ccc(Cl)cc2)C[C@H]1C1CCCCC1` (stereo partly drawn) was tested, and the Potency was inconclusive: 5.01 µM [inhibitor, full curve, poor fit]. For `CCSc1nnc(NC(=O)c2cccc3ccccc23)s1`, the Potency was inconclusive: 12.6 µM [inhibitor, partial curve, poor fit]. In the case of `O=C(Nc1nc(C2C3CC4CC(C3)CC2C4)cs1)c1cc2cc([N+](=O)[O-])ccc2oc1=O` (stereo not drawn), the Potency is reported as active: 25.1 µM. In the case of `CCc1cc2ccc(C)cc2nc1SCC(=O)c1ccc(NC(C)=O)cc1`, the Potency is reported as inconclusive: 39.8 µM [activator, single point]. In the case of `COC(=O)[C@@]1(Cc2ccc(OC)cc2)[C@H]2c3cc(C(=O)N(C)C)n(Cc4ccc(OC(F)(F)F)cc4)c3C[C@H]2CN1C(=O)c1ccccc1`, the Potency is reported as inconclusive: 10 µM [activator, partial curve] and inconclusive: 12.6 µM [activator, partial curve]. With `CCCCC[C@H](O)/C=C/[C@@H]1[C@@H](C/C=C\CCCC(=O)O)[C@H](O)C[C@H]1O` the max response, negative = inhibition was inactive: -6.41%. For `COc1cc2c(cc1NC(=O)/C=C/c1cc(OC)c(OC)c(OC)c1)oc1ccccc12`, the Potency was inconclusive: 0.794 µM [inhibitor, single point]. With `O=C(Nc1ccccc1Cl)N1CCN(c2ccc3nnc(-c4ccc(F)cc4)n3n2)CC1` the Potency was inconclusive: 31.6 µM [activator, partial curve]. In the case of `Cc1nc2ccccc2c(=O)n1-c1ccc(NC(=O)C(F)(F)F)cc1`, the max response, negative = inhibition is reported as inactive: -0.0945%. `Cc1ccc(-n2ncc(C(=O)NCCc3ccsc3)c2C2CCN(C(=O)OC(C)(C)C)CC2)cc1C` was tested, and the Potency was inconclusive: 3.16 µM [inhibitor, single point]. `O=C(Cn1nc(-c2ccc(Cl)cc2)c2ccccc2c1=O)Nc1cccnc1` was tested, and the Potency was inconclusive: 39.8 µM [activator, single point]. For `CC1CCN(c2ccc(-c3nc(C(C)C)no3)cc2[N+](=O)[O-])CC1`, the Potency was inconclusive: 31.6 µM [inhibitor, single point]. For `Cc1ccc(-c2nc(CS(=O)CC(=O)N3CCN(c4ccc(Cl)cc4)CC3)c(C)o2)cc1` (stereo not drawn), the max response, negative = inhibition was inactive: 14.2%. With `CC[C@@H](CO)NC(=O)[C@@H]1C=C2c3cccc4c3c(cn4C)C[C@H]2N(C)C1` the Potency was inconclusive: 25.1 µM [inhibitor, single point]. For `CC1(C)CC(=O)c2c(oc3c(Cl)cc(NS(=O)(=O)c4ccc(Cl)cc4)cc23)C1`, the max response, negative = inhibition was inactive: -2.54%. With `COc1ccc(/C=N/NC(=O)c2ccc(COc3ccccc3Cl)o2)c(OC)c1C` the Potency was inconclusive: 31.6 µM [inhibitor, single point]. In the case of `COCCn1c(=O)c(-c2ccc(F)cc2)nc2cnc(N(C)C)nc21`, the max response, negative = inhibition is reported as inactive: 17.2%. In the case of `COc1ccccc1Nc1cc(C(=O)NCc2cccs2)c2ccccc2n1`, the Potency is reported as inconclusive: 39.8 µM [inhibitor, single point]. In the case of `Cc1ccc(C(=O)NNC(=S)NC(=O)c2ccc(Cl)cc2)cc1`, the Potency is reported as inconclusive: 39.8 µM [inhibitor, single point]. `COc1ccccc1CCNC(=O)C(=O)NCC(c1ccco1)S(=O)(=O)c1ccc(C)cc1` (stereo not drawn) was tested, and the max response, negative = inhibition was inactive: 0.825%. `CCCc1noc2c1/C(=N\O)CC(c1ccccc1)C2` (stereo not drawn) was tested, and the Potency was inconclusive: 39.8 µM [inhibitor, single point]. In the case of `O=C(Nc1ccc(Cl)cc1)N1CCN(c2ccc3nnc(-c4ccc(F)cc4)n3n2)CC1`, the Potency is reported as inconclusive: 3.98 µM [activator, full curve] and inconclusive: 12.6 µM [activator, partial curve]. With `O=C1OCCN1C(=O)[C@H]1[C@H](c2ccccc2)C(c2ccccc2)=NN1c1ccccc1` the Potency was inconclusive: 35.5 µM [inhibitor, single point]. With `Cc1cccc(NC(=O)CSc2nc(N)c(NC(=O)c3cccs3)c(=O)[nH]2)c1C` the Potency was inconclusive: 39.8 µM [inhibitor, single point]. With `CCOC(=O)c1sc2nc(-c3ccco3)c3c(c2c1N)CC(C)(C)OC3` the Potency was inconclusive: 39.8 µM [activator, single point]. In the case of `NC(=S)N=Nc1c(O)[nH]c2cc(F)c(F)cc12`, the Potency is reported as active: 10 µM. `CCn1nc(C)c(CCN(C)C(=O)Nc2cc(Cl)ccc2C)c1C` was tested, and the max response, negative = inhibition was inactive: 3.19%. In the case of `O=C(c1ccc(OCCN2CCCCC2)cc1)c1c(-c2ccc(O)cc2)sc2cc(O)ccc12`, the max response, negative = inhibition is reported as inactive: -9.1% and inactive: -24.8% and inactive: -11.7%. `COc1ccc(OC)c(NC(=O)c2cnc(Nc3ccccc3OC)c3ccccc23)c1` was tested, and the Potency was inconclusive: 31.6 µM [inhibitor, single point]. `COc1cc(S(=O)(=O)N2CCC(c3nc4ccccc4s3)CC2)ccc1S(=O)(=O)N1CC(C)CC(C)C1` (stereo not drawn) was tested, and the Potency was active: 3.98 µM. For `COc1cccc(-c2nccc(-n3ccnc3)n2)c1`, the max response, negative = inhibition was inactive: 10.1%. With `COc1cccc(CC(=O)Nc2ccccc2C(=O)N2CCOCC2)c1` the max response, negative = inhibition was inactive: -4.2%. With `COc1cc(C(=O)Nc2ccc(Br)cc2C(=O)c2ccccc2)cc(OC)c1OC` the Potency was inconclusive: 39.8 µM [activator, single point]. For `CCCCNC(=S)Nc1ccc(-c2nc3ccc(C)cc3s2)cc1`, the Potency was inconclusive: 20 µM [inhibitor, partial curve, poor fit]. For `CCCNC(=O)c1c(N)n(Cc2ccco2)c2nc3ccccc3nc12`, the Potency was inconclusive: 31.6 µM [activator, single point]. For `Cc1cc(-c2ccc(Cl)cc2)c(C#N)c(N)n1`, the Potency was inconclusive: 31.6 µM [inhibitor, single point]. With `CN(C1CCCCC1)S(=O)(=O)c1ccc2c(c1)c(=O)c(C(=O)NCCc1ccccc1)cn2C` the Potency was inconclusive: 39.8 µM [activator, single point]. `CCOC(=O)c1c(NC(=O)C(=O)N/N=C/c2ccccc2OC)sc2c1CCCCC2` was tested, and the Potency was active: 10 µM. `Cc1cccc(NC(=O)C2CCCN(S(=O)(=O)c3cnc[nH]3)C2)c1C` (stereo not drawn) was tested, and the max response, negative = inhibition was inactive: 9.03%. With `Nc1nnc(SCC(=O)Nc2ccccc2C(F)(F)F)s1` the max response, negative = inhibition was inactive: -8.46%.
